# Assay results as given in PubChem BioAssay AID540317 (National Center for Advancing Translational Sciences (NCATS), 2011).
# Several values for one entry are separate records, joined by “and”; a condition that tells them apart may be missing. Equal entries are not always repeated. In all, about 390,000 compounds went through this assay and about 2,200 (0.56%) were called active. The shares of active, inactive and inconclusive entries below differ from those in the screen. The call rests on the fitted dose curve; in most records, active means well fitted inhibition curve with a large enough effect; inconclusive means small, poorly fitted or top-dose-only effect; inactive means no such curve, though single readings can be large or run the other way. A potency beside an inconclusive call is a rough fit, not a confirmed value.
# Target: Chromobox protein homolog 1 (Homo sapiens) (UniProt P83916)
# Chain of UniProt P83916 (P83916 whole entry, looked up): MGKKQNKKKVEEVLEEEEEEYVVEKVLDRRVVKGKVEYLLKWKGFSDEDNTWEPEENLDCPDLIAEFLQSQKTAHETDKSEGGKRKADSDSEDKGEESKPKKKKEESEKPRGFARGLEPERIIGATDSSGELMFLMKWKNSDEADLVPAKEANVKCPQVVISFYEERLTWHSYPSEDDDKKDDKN
# Test: HTS for Inhibitors of HP1-beta Chromodomain Interactions with Methylated Histone Tails; further: nearly all actives have a fitted effect of over 70% in size
# Details: AlphaScreen HP1-beta / biotin-H3K9me3 peptide binding; series mostly up to 114 µM; activity change, negative = inhibition: at the top concentration
# Outline: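 Compound inhibition of the preformed complex between 50 nM HP1-beta and 50 nM biotinylated H3K9me3 peptide was read by AlphaScreen. Buffer was PBS pH 7.4 with 0.01% Tween-20. Incubations ran 30 min at room temperature, with 10 ug/mL donor/acceptor beads.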
# Potency means the concentration at half of the fitted maximal effect; tags describe the fitted curve by direction and shape.
SMILES,Potency,"activity change, negative = inhibition"
CNC(=S)NNc1nc(N2CCOCC2)nc(N2CCOCC2)n1,"inconclusive: 89.1 µM [inhibitor, single point]",–
COc1cc2c(cc1NC(=S)Nc1cccc3ccccc13)oc1ccccc12,"inconclusive: 22.4 µM [inhibitor, partial curve]",–
c1ccc2c(c1)OCC(c1nnc3sc(-c4ccc5c(c4)OCO5)nn13)O2 (stereo unspecified),"inconclusive: 22.4 µM [inhibitor, single point]",–
COc1cccc(N2CCN(C(=O)CCS(=O)(=O)c3ccc4c(c3)oc(=O)n4C)CC2)c1,inactive,–
CCN1CCN(CCNC(=O)c2ccc3c(c2)N(Cc2ccc(F)cc2)C(=O)/C(=C/c2ccccc2)S3)CC1,"inconclusive: 35.5 µM [inhibitor, partial curve]",–
O=C(Cc1cccs1)OCC(=O)c1ccco1,"inconclusive: 79.4 µM [inhibitor, single point]",–
C=CCn1c(C)nnc1SCC(=O)Nc1cc(S(=O)(=O)N2CCCC2)ccc1Cl,–,inactive: 34.6%
C=CCc1ccc(OCCCNCc2ccccc2)c(OC)c1,"inconclusive: 12.6 µM [inhibitor, full curve, poor fit]",–
N#Cc1c(/N=C/c2ccc(-c3ccc(C(=O)O)c(Cl)c3)o2)sc2c1CCCC2,"inconclusive: 50.1 µM [inhibitor, single point]",–
COc1ccc(CCn2c(-c3cc([N+](=O)[O-])cc([N+](=O)[O-])c3)nc3nc4ccccc4nc32)cc1,"inconclusive: 20 µM [inhibitor, partial curve]",–
Cn1c(C(=O)Nc2ccccc2)cc2sccc21,–,inactive: 5.34%
O=C(O)CSC1=NC(=Nc2ccc(Cl)cc2)C2(CCCCC2)N1c1cccc(C(=O)O)c1,"inconclusive: 22.4 µM [inhibitor, full curve, poor fit]",–
Cc1ccc2c(CNCc3ccc(C)o3)c(C(=O)O)n(Cc3ccccc3C)c2c1,"inconclusive: 70.8 µM [inhibitor, partial curve]",–
CCN=c1scc(C)n1/N=C/c1ccc(O)c(O)c1O,"inconclusive: 25.1 µM [inhibitor, single point]",–
CC1CCCC(NC(=O)NC(=O)COC(=O)C2=NN(c3ccccc3)C(=O)CC2)C1C (stereo unspecified),–,inactive: 40.1%
O=C(O)C(O)c1ccco1 (stereo unspecified),"inconclusive: 14.1 µM [inhibitor, full curve, poor fit]",–
Cc1nc2sc3c(c2c(=O)o1)CCC3,–,inactive: 25.9%
COc1ccc(Nc2oc(COc3ccc(OC)cc3)nc2C#N)cc1,"inconclusive: 44.7 µM [inhibitor, partial curve, poor fit]",–
Cc1cccc(C)c1-n1c(C)cc(/C=N\NC(=O)CC(=O)NC2CCCCC2)c1C,"inconclusive: 20 µM [inhibitor, partial curve, poor fit]",–
CCCCn1cnc2cc(NCc3ccccc3Cl)ccc21,"inconclusive: 44.7 µM [inhibitor, partial curve]",–
COc1ccc(CNC(C)C2COc3ccccc3O2)c(OC)c1 (stereo unspecified),"inconclusive: 39.8 µM [inhibitor, partial curve, poor fit]",–
CCc1c(C)sc(NC(=O)C2CCCCC2C(=O)O)c1C(N)=O (stereo unspecified),"inconclusive: 25.1 µM [inhibitor, full curve, poor fit]",–
O=C(N=Nc1c(O)[nH]c2ccc(Br)cc12)c1ccccc1-n1cccc1,"inconclusive: 2.51 µM [inhibitor, partial curve, poor fit]",–
Cc1ccc(NC(=O)C2C3CCCC2C3c2ccccc2)c(C)c1 (stereo unspecified),–,inactive: 41.1%

SMILES,Potency,"activity change, negative = inhibition"
CCS(=O)(=O)n1c(Cc2cccs2)nc2ccccc21,–,inactive: 65.7%
C/C(=N\N(C)C)c1ccc(OCCOc2ccc([N+](=O)[O-])cc2)cc1,"inconclusive: 79.4 µM [inhibitor, partial curve]",–
O=C(CCCSc1nnc(Nc2ccccc2F)s1)N1CCOCC1,–,inactive: 8.04%
CCOc1ccc(OCC)c(NC(=O)CN2CCN(c3cccc(C)c3C)CC2)c1,"inconclusive: 14.1 µM [inhibitor, partial curve, poor fit]",–
CCCc1nnc(NC(=O)c2nc(SCC)ncc2Cl)s1,–,inactive: 28.4%
Cc1cccc(NC(=O)CCn2cnc3ccccc3c2=O)c1,–,inactive: -7.48% [at 57 µM]
O=c1[nH]c(=O)c2[nH]c(=S)[nH]c2[nH]1,active: 10 µM,–
COCc1cc(C)nc2c1C(=O)NC(c1ccc(F)cc1)N2Cc1ccccc1 (stereo unspecified),–,inactive: 3.72%
CCOc1cccc2sc(NN)nc12,"inconclusive: 50.1 µM [inhibitor, partial curve]",–
COc1ccc(CCn2c(S)nc3ccccc3c2=O)cc1,–,inactive: 62.7%
COc1ccc(C(=O)N2CCN(C3CCN(Cc4ccccc4)CC3)CC2)cc1OC,"inconclusive: 14.1 µM [inhibitor, full curve, poor fit]",–
CCOC(=O)C(C)(C)N(Cc1ccccc1C)S(=O)(=O)c1ccc(Cl)c([N+](=O)[O-])c1,–,inactive: -8.51%
Cn1c(=O)c(C(=O)Nc2ccccn2)c(O)c2ccccc21,"inconclusive: 39.8 µM [inhibitor, single point]",–
N=c1scc(-c2ccccc2)n1/N=C/c1ccco1,"inconclusive: 25.1 µM [inhibitor, partial curve, poor fit]",–
COc1cc(/C=N/NC(=O)C(Cc2c[nH]c3ccccc23)NC(=O)OCC(C)C)cc([N+](=O)[O-])c1O (stereo unspecified),–,inactive: -29.8%
CCOCC(=O)NC1CCc2cc(OC)c(OC)c(OC)c2-c2ccc(SC)c(=O)cc21 (stereo unspecified),–,inactive: 18.8%
COc1ccc(C(CCN2CCCC(C)C2)c2c(OC)cc(OC)c3c(C)cc(=O)oc23)cc1 (stereo unspecified),inactive,–
Cc1ccc(NC(=O)C2CCCN(S(=O)(=O)c3cccc4nsnc34)C2)cc1C (stereo unspecified),–,inactive: 29.9%
Cc1ccc(OCCNC(=O)C(=O)NCc2ccco2)cc1,–,inactive: 21.2%
Cc1cc(NS(=O)(=O)c2ccc(Nc3nc(-c4sc(N)nc4C)cs3)cc2)no1,"inconclusive: 56.2 µM [inhibitor, partial curve, poor fit]",–
Cc1ccc2sc(NNC(=O)c3cc(=O)c4ccccc4o3)nc2c1C,"inconclusive: 22.4 µM [inhibitor, full curve]",–
CN1c2ccc(C=O)c3c(C=O)ccc(c23)N(C)C1(C)C,"inconclusive: 70.8 µM [inhibitor, partial curve]",–
COc1ccccc1C1CCN(c2cc(O)ccc2[N+](=O)[O-])CC1,"inconclusive: 50.1 µM [inhibitor, partial curve]",–
COc1ccc(C2(Nc3cccc(F)c3)C(=O)c3ccccc3C2=O)cc1,"inconclusive: 35.5 µM [inhibitor, partial curve]",–

SMILES,Potency,"activity change, negative = inhibition"
N#Cc1ccccc1CN1C(=O)c2ccccc2S1(=O)=O,–,inactive: 39.3%
CCCCn1c(-c2sccc2C)n[nH]c1=S,"inconclusive: 89.1 µM [inhibitor, single point]",–
COc1ccc(NC(=O)CCN2CCN(Cc3ccccc3)CC2)c(OC)c1,–,inactive: 22.3%
Clc1ccccc1OCCCn1ccnc1,"inconclusive: 15.8 µM [inhibitor, partial curve, poor fit]",–
O=[N+]([O-])c1cc(C(F)(F)F)ccc1NCCc1c[nH]c2ccccc12,"inconclusive: 39.8 µM [inhibitor, partial curve]",–
COC(=O)c1[nH]c2ccccc2c1NC(=O)/C=C/c1ccc2c(c1)OCO2,–,inactive: 19.1%
CN(N=Cc1cccc2cccnc12)c1ccc([N+](=O)[O-])cc1[N+](=O)[O-],"inconclusive: 22.4 µM [inhibitor, partial curve, poor fit]",–
CC(C)C(C)(C#N)NC(=O)CSc1nnc(-c2ccncc2)n1Cc1ccccc1 (stereo unspecified),"inconclusive: 39.8 µM [inhibitor, single point]",–
COc1ccc(N2CCN(C(=O)C3CCCN(S(=O)(=O)c4ccc(C)cc4)C3)CC2)cc1 (stereo unspecified),"inconclusive: 79.4 µM [inhibitor, single point]",–
Cc1cc(-c2cn3ccccc3n2)c(C)n1-c1ccccc1,"inconclusive: 50.1 µM [inhibitor, partial curve, poor fit]",–
O=C1C=C(Nc2ccccc2)c2ccccc2C1=O,"inconclusive: 39.8 µM [inhibitor, partial curve]",–
c1cn(C23CC4CC(CC(C4)C2)C3)cn1,–,inactive: 18.4%
Cc1ccc2ccc3ccc(C)nc3c2n1,–,inactive: 28.8%
Cc1cccc(Nc2nc(N)nc(N)c2S(=O)(=O)c2ccccc2)c1,–,inactive: 23%
COc1cc(C(CCN2CCCC(C)C2)c2c(OC)cc(OC)c3c2OC(=O)CC3c2ccc(N(C)C)cc2)cc(OC)c1OC (stereo unspecified),"inconclusive: 39.8 µM [inhibitor, partial curve] and inconclusive: 20 µM [inhibitor, full curve, poor fit]",–
COCCn1nnnc1C(c1cc2cc(C)cc(C)c2[nH]c1=O)N1CCN(c2ccccc2F)CC1 (stereo unspecified),–,inactive: 9.79%
CC(C)(C)OC(=O)N/N=C\C=C\c1ccc2c(c1)OCO2,–,inactive: 49.3%
Cc1ccc(CN(Cc2ccco2)C(=S)NCC(=O)NCc2cccnc2)cc1,"inconclusive: 25.1 µM [inhibitor, partial curve, poor fit]",–
Cc1ccc(CNC(=O)C2CCCN2S(=O)(=O)c2ccc(F)cc2)cc1 (stereo unspecified),–,inactive: 12%
N#Cc1nc(-c2ccccc2F)oc1N1CCCC1,"inconclusive: 28.2 µM [inhibitor, single point]",–
O=C(/C=C1\NC2(CCCC2)Cc2ccccc21)C(=O)N/N=C/c1ccc(O)c(O)c1,"inconclusive: 25.1 µM [inhibitor, full curve]",–
Cc1cc(C)c(OCCCCN(C)Cc2ccccc2)c(C)c1,"inconclusive: 12.6 µM [inhibitor, partial curve, poor fit]",–
Cc1ccc(S(=O)(=O)c2nc(C)oc2N2CCOCC2)cc1,"inconclusive: 44.7 µM [inhibitor, partial curve]",–
